Data as given in PubChem BioAssay AID894 (National Center for Advancing Translational Sciences (NCATS), 2007).
Values joined by “and” are separate entries in the source; they are usually repeats but may differ in a detail not shown here. Identical values can stand only once. Screen size: about 150,000 compounds; about 6,500 (4.3%) were called active. Inconclusive means that the source gave no clear call. Such entries were picked first, then a sample of the others. Calls come from the whole dose curve; as a rule, active = well fitted inhibition curve with a large enough effect (not every such curve was filed as active); inconclusive = small, poorly fitted or top-dose-only effect, or another doubt; inactive = no such curve, though single readings can be large or run the other way. Potencies of inconclusive entries are left out as doubtful fits.

Molecular target: 15-hydroxyprostaglandin dehydrogenase [NAD(+)] (Homo sapiens) (UniProt P15428)
Test: qHTS Assay for Inhibitors of HPGD (15-Hydroxyprostaglandin Dehydrogenase)
Conditions: purified HPGD, NADH fluorescence kinetic, PGE2 substrate; activity change, negative = inhibition: stronger effect = lower value
In short: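 NADH formation kinetics: reaction with 30 uM PGE2 and 1 mM NAD+ (final), 20 nM enzyme, Tris-HCl pH 8 with Tween 20, after 15 min compound preincubation at room temperature. Fluorescence change, last versus first of five reads.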
% is set by controls: 0 for no effect and ±100 for the full control effect; potency is the fitted concentration of half-maximal effect; tags give direction and shape of the fitted curve.

UniProt P15428, sequence (P15428 whole entry, looked up): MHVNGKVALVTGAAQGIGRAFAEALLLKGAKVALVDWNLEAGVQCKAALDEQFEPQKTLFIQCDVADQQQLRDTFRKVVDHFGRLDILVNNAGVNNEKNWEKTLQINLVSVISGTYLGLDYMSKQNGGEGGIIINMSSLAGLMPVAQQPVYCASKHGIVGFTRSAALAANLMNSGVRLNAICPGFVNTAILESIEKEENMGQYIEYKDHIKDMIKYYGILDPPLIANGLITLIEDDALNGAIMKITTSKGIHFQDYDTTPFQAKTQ

| SMILES | Potency | activity change, negative = inhibition |
| --- | --- | --- |
| O=C(c1ccccc1)c1coc2ccc(O)c(Cl)c12 | active: 14.1 µM | – |
| CCOc1ccc(S(=O)(=O)NCc2ccc(Cl)cc2)c2cccnc12 | inconclusive [inhibitor, partial curve] | – |
| Oc1ccc(/C=C/c2ccnc3ccccc23)cc1 | inconclusive [inhibitor, partial curve] | – |
| Cc1cccc(-n2nnnc2SCc2csc(-c3ccccc3)n2)c1 | inconclusive [inhibitor, partial curve] | – |
| CCCOC(=O)C1=C(C)NC2=C(C(=O)CCC2)C1c1cccc(OC)c1OC (centres undefined) | inconclusive [inhibitor, partial curve] | – |
| COc1ccc(N2CCCn3c2nc2c3c(=O)n(Cc3ccccc3F)c(=O)n2C)c(OC)c1 | inconclusive [inhibitor, single point] | – |
| C=CCCCCCCCCCCCC(O)CC(O)COC(C)=O (centres undefined) | inconclusive [inhibitor, partial curve, poor fit] | – |
| CCn1c(=N)n(CC(=O)c2cccc(OC)c2)c2ccccc21 | active: 35.5 µM | – |
| CC(C)(S)[C@@H](N)C(=O)O | – | inactive: -6.75% and inactive: -4.6% |
| C=C1CC[C@@H]2O[C@@]2(C)CC[C@H]2[C@H]1CC2(C)C | – | inactive: -2.99% |
| CC1CCCCC12NC(=O)N(CC(=O)Nc1ccc(S(=O)(=O)N3CCOCC3)cc1)C2=O (centres undefined) | – | inactive: -5.12% |
| Cc1nc(Cc2nnc(SCc3nc(N)nc(Nc4ccccc4C)n3)o2)cs1 | – | inactive: -7.91% |
| COc1ccc(C(NC(=O)/C=C/c2ccco2)c2ccc(OC)c(OC)c2)cc1 (centres undefined) | inconclusive [inhibitor, partial curve, poor fit] | – |
| Cc1ccc(S(=O)(=O)N(C(=O)c2ccncc2)c2ccc(OC(=O)c3ccncc3)c3ccccc23)c(C)c1 | active: 28.2 µM | – |
| O=C(Nc1ccc(-c2nc3ncccc3o2)cc1)c1ccco1 | inconclusive [inhibitor, single point] | – |
| CC1=C(C(=O)Nc2cc(C)ccn2)C(c2cnn(C)c2)C2=C(CC(c3ccccc3)CC2=O)N1 (centres undefined) | inconclusive [inhibitor, partial curve] | – |
| Cc1cc(-c2nnc3n2CCCCC3)c(C)n1-c1ccccc1 | active: 0.158 µM | – |
| COc1cccc(/C=N\NC(=O)c2cc(OCC(F)(F)F)ccc2OCC(F)(F)F)c1 | inconclusive [inhibitor, partial curve] | – |
| O=C(Nc1nc2nccc(-c3ccccc3)n2n1)c1ccc(F)cc1 | – | inactive: -26.8% |
| Clc1ccc(-c2csc(NNC3=NCCCCC3)n2)cc1 | inconclusive [inhibitor, partial curve, poor fit] | – |
| CC(N)(Cc1ccc(O)c(O)c1)C(=O)O (centres undefined) | active: 10 µM | – |
| Cc1ccc(OCc2cc(C(=O)Nc3ccccc3)oc2C)cc1 | inconclusive [inhibitor, partial curve] | – |

| SMILES | Potency | activity change, negative = inhibition |
| --- | --- | --- |
| CCCCNc1nc(C)nc2c1nc(-c1ccccc1)n2CC1CCCN1CC (centres undefined) | inconclusive [inhibitor, partial curve] | – |
| Cc1c(Cl)cccc1-n1c(SCC(=O)NCc2ccccc2Cl)nnc1-c1ccncc1 | inconclusive [inhibitor, partial curve] | – |
| O=C(CN1CCCC1)N/N=C/c1ccc(-c2cccc(Cl)c2)o1 | inconclusive [inhibitor, partial curve] | – |
| COc1ccccc1C1CC(=O)Nc2cc3c(cc21)OCCO3 (centres undefined) | active: 31.6 µM | – |
| CCCC1C(C#N)=C(N)Oc2cc(C)n(C)c(=O)c21 (centres undefined) | inconclusive [inhibitor, partial curve] | – |
| Cc1ccc2cc(C#N)c(N3CCN(C)CC3)nc2c1 | – | inactive: -13.2% |
| COc1ccc(N2CSC3=C(C#N)C(c4cc(OC)ccc4OC)CC(=O)N3C2)c(OC)c1 (centres undefined) | active: 7.94 µM | – |
| COc1cc(/C=N/n2c(-c3ccc4c(c3)NC(=O)CO4)csc2=Nc2cccc(C)c2)ccc1O | inconclusive [inhibitor, partial curve, poor fit] | – |
| COc1ccccc1C(=O)Nc1nnc(SCC(=O)Nc2ccc3c(c2)oc2ccccc23)s1 | inconclusive [inhibitor, single point] | – |
| COc1ccc(C=Nc2cccc3c(=O)[nH][nH]c(=O)c23)c2ccccc12 | inconclusive [inhibitor, partial curve] | – |
| O=[N+]([O-])c1ccc2c(c1)C(N1CCOCC1)/C(=C/COc1ccc(Cl)cc1Cl)O2 (centres undefined) | – | inactive: -16.3% |
| CC1CCN(S(=O)(=O)c2ccc(S(=O)(=O)NCC(=O)C(C)(C)C)cc2)CC1 | – | inactive: -2.36% |
| CN(Cc1ccccc1)C(=O)c1ccc2c(c1)OCO2 | active: 14.1 µM | – |
| Cc1cnc(C(=O)Nc2ccc(-n3cnnn3)cc2)cn1 | – | inactive: -22.9% |
| COc1ccc(C)cc1NC(=O)c1cnc2scc(C)n2c1=O | inconclusive [inhibitor, single point] | – |
| CN(C)CCCNc1oc(-c2cccc(Cl)c2)nc1C#N | inconclusive [inhibitor, partial curve] | – |
| C=CCN(CC=C)S(=O)(=O)c1ccc(NC(=S)NC(=O)/C=C/c2cccc3ccccc23)cc1 | inconclusive [inhibitor, partial curve] | – |
| COc1ccc(Nc2cc(C(=O)NCc3ccco3)c3ccccc3n2)cc1 | inconclusive [inhibitor, partial curve] | – |
| O=C(Nn1c(=O)[nH]c2ccsc2c1=O)c1ccccc1 | inconclusive [inhibitor, single point] | – |
| CC1CCN(C(=O)c2cc3ccccc3o2)CC1 | active: 11.2 µM | – |
| CCC(C)c1ccc2oc(-c3ccc(NC(=O)c4ncn[nH]4)cc3)nc2c1 (centres undefined) | inconclusive [inhibitor, partial curve] | – |
| CCOC(=O)C(Sc1nnc2c3ccccc3n(CC)c2n1)C(=O)OCC | inconclusive [inhibitor, single point] | – |
